Values joined by “and” are separate entries in the source; they are usually repeats but may differ in a detail not shown here. Equal entries are not always repeated. About 1,200 (2.5%) of roughly 48,000 compounds were called active. Another 2% or so got no clear call; they are omitted.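 Rule for the calls: active = activation of at least 60% and not above a set upper limit (about 1 call in 100 departs from these limits); inconclusive = activation of 40% to 60%, or above that upper limit; inactive = activation under 40%.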 Some of the results follow.
The compounds below were run against Probable G-protein coupled receptor 32 (Homo sapiens) (UniProt O75388) (assay: qHTS for Agonists of Human Resolvin D1 Receptor DRV1). Details: CHO-K1 GPR32 beta-arrestin PathHunter luminescence, 90 min; at 76.9 µM; hits give high values; zero percent set by DMSO-only wells.
Chain of UniProt O75388 (O75388 whole entry, looked up): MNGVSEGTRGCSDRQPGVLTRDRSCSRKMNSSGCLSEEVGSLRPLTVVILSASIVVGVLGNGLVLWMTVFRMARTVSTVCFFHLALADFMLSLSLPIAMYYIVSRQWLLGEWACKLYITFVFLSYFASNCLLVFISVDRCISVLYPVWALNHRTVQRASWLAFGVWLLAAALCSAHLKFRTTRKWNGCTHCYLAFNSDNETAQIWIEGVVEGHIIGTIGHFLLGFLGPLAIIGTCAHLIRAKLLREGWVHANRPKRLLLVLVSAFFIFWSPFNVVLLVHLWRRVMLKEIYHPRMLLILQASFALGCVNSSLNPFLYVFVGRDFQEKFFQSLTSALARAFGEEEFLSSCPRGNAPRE
In short: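 Using DMSO wells as EC0, agonist-induced signal was taken as chemiluminescence from beta-Gal reconstituted upon beta-arrestin recruitment to GPR32 in CHO-K1 cells after 90 min compound treatment.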
With `CCN1CCN(c2ncnc3c2cnn3-c2cc(Cl)ccc2C)CC1` the activation was inactive: 20.7%.
For `O=C(CSc1oc(-c2ccc(F)cc2)nc1S(=O)(=O)c1ccc(Br)cc1)NC1CCCCC1`, the activation was inactive: -10.8%.
In the case of `CCCOc1ccc(C2c3c(oc4ccc(F)cc4c3=O)C(=O)N2CCc2ccc(OC)cc2)cc1` (stereo not drawn), the activation is reported as inactive: 13.6%.
With `CCOc1ccc2c(c1)c(=O)c(S(=O)(=O)c1ccc(C)cc1)cn2Cc1ccccc1Cl` the activation was inactive: -20.9%.
For `CC(=O)Nc1nonc1-c1nnc(SCC(=O)Nc2ccc(C)c(Cl)c2)n1C`, the activation was inactive: -6.35%.
For `COc1ccc(-c2nc(S(=O)(=O)c3ccc(C)cc3)c(N3CCCCC3)o2)cc1`, the activation was inactive: -40.9%.
With `Cc1ccc(CNC(=O)CN2C(=O)CC(c3ccc(C)c(C)c3)=Nc3ccccc32)cc1` the activation was inactive: -15.3%.
`CCCCOC(=O)c1ccc(Nc2ncnc3c2cnn3-c2cccc(C)c2)cc1` was tested, and the activation was inactive: -0.826%.
With `Cc1cccc(CN2CCC(CNc3ncnc4onc(-c5ccc(Cl)cc5)c34)CC2)c1` the activation was inactive: -3.53%.
With `Cc1ccc(-c2nnc3c4ccccc4c(C)nn23)cc1NC(=O)c1cccc(Br)c1` the activation was inactive: -14.9%.
With `COc1ccc(NC(=O)C2CCCN(S(=O)(=O)c3cccc4nonc34)C2)cc1Cl` (stereo not drawn) the activation was inactive: 14.7%.
With `COc1ccccc1NC(=O)CSc1nc2c(oc3ccccc32)c(=O)n1Cc1ccco1` the activation was inactive: 22.7%.
In the case of `Cn1cnc([N+](=O)[O-])c1Sc1ncnc2nc[nH]c12`, the activation is reported as inactive: -78.5% and inactive: -60.5% and inactive: -4.95%.
For `Clc1cccc(-n2cc(-c3ccccc3)c3c(NC4CCCC4)ncnc32)c1`, the activation was inactive: -25.6%.
For `COc1cccc(N2CCN(c3ncnc4c3c(-c3ccccc3)cn4-c3ccc(F)cc3)CC2)c1`, the activation was inactive: -26.7%.
For `CCCCN(CC)C(=O)CCCn1c(=O)c2cccn2c2ccccc21`, the activation was inactive: -10.3%.
In the case of `O=C(NCc1cccc(Cl)c1)NCc1noc2ccccc12`, the activation is reported as inactive: -7.67%.
`Cc1ccc(NC(=O)C(=O)NCC2(c3ccccc3)CCCC2)cc1C` was tested, and the activation was inactive: 5.59%.
`CCc1cccc(NC(=O)c2c(C)oc3nc(C)nc(N4CCCC4)c23)c1` was tested, and the activation was inactive: -7.21%.
For `O=C(CN1C(=O)COc2ccc(S(=O)(=O)N3CCOCC3)cc21)N1CCN(c2ccccc2F)CC1`, the activation was inactive: -6.78%.
`O=C(NCCCO)c1nn(-c2ccc(Cl)cc2)nc1CO` was tested, and the activation was inactive: 2.33%.
With `COC(=O)C1CCN(c2csc3ccc(Cl)cc3c2=O)CC1` the activation was inactive: -4.04%.
`CCCOc1ccc(CNC(=O)CN2C(=O)c3cccnc3Oc3ccc(C)cc32)cc1` was tested, and the activation was inactive: -8.65%.
With `Nc1nc2ncc(CNc3ccc(C(=O)N[C@@H](CCC(=O)O)C(=O)O)cc3)nc2c(=O)[nH]1` the activation was inactive: 0.389%.
In the case of `COc1cccc(NC(=O)Cn2c(=O)n(CCc3ccc(OC)c(OC)c3)c(=O)c3ccccc32)c1`, the activation is reported as inactive: -9.3%.
For `CCOc1ccc2oc(=O)cc(CN3CCN(c4ccccc4OC)CC3)c2c1`, the activation was inactive: -20.7%.
`CCc1ccc(OCc2cc(=O)n3cc(C)sc3n2)cc1` was tested, and the activation was inactive: 3.51%.
`COc1cc(OC)c(OC)cc1CNCCCSc1nnnn1C` was tested, and the activation was inactive: -0.945%.
`COc1ccc(C(=O)N(Cc2cc(OC)c(OC)c(OC)c2)C2CCS(=O)(=O)C2)cc1Cl` (stereo not drawn) was tested, and the activation was inactive: -12.8%.
For `CCc1ccc(NCc2cc3ccc(OC)cc3n(CC(=O)Nc3ccc(C)c(Cl)c3)c2=O)cc1`, the activation was inactive: -42.1%.
For `Cc1ccc(CSc2nc(-c3ccccc3C)nc3c2Cc2c(CO)cnc(C)c2O3)cc1`, the activation was inactive: 33.9%.
`CCCCn1c(=N)n(CCOc2ccccc2OC)c2ccccc21` was tested, and the activation was active: 64.5%.
For `Cc1ccc(C(=O)c2oc3ccccc3c2NC(=O)Cc2ccccc2)cc1`, the activation was inactive: -3.84%.
`CC(C)Oc1ccc(CNC(=O)Cn2nc(N3CCN(c4ccccc4)CC3)ccc2=O)cc1` was tested, and the activation was active: 67.9%.
With `Cn1cc(S(=O)(=O)N2CCOCC2)cc1C(=O)Nc1cccc(C#N)c1` the activation was inactive: -2.59%.
In the case of `CCC(=O)N1CCc2cc(OC)c(OC)cc2C1COc1ccc2c(C)cc(=O)oc2c1` (stereo not drawn), the activation is reported as inactive: -2.96%.
In the case of `CC(C)c1ccc(CNc2n[nH]c(-c3ccco3)n2)cc1`, the activation is reported as inactive: 35.2%.
In the case of `COCCNC(=O)C1=CC(c2ccc3c(c2)OCO3)=NS(=O)(=O)N1C`, the activation is reported as inactive: -5.39%.
In the case of `COc1ccc(C2c3c(n(C)c4ccccc34)C(=O)N2CC(=O)Nc2ccc(F)cc2)cc1` (stereo not drawn), the activation is reported as inactive: -23.9%.
`COc1ccc(-c2ccc(=O)n(CC(=O)Nc3ccc(OC)c(OC)c3)n2)cc1` was tested, and the activation was inactive: -13.2%.
For `CCOc1ccc(-c2nc(SCC(=O)Nc3cc(F)ccc3F)n3[nH]c(=O)cc3n2)cc1`, the activation was inactive: 4.52%.
In the case of `Nc1nc(Cl)nc2c1ncn2[C@@H]1O[C@H](CO)[C@@H](O)[C@H]1O`, the activation is reported as inactive: 12.8%.
In the case of `CCOC(=O)c1c(S(=O)(=O)N2CCC(C(=O)N3CCN(c4ccc(F)cc4)CC3)CC2)c(C)n(C)c1C`, the activation is reported as inactive: -1.13%.
`Cn1ncc2c(NCc3ccc(F)cc3)ncnc21` was tested, and the activation was inactive: 1.57%.
In the case of `CCn1nnc2cc(C(=O)Nc3ccc(Br)cc3F)ccc21`, the activation is reported as inactive: 29.9%.
`Cn1c(=O)c2c(SCC(=O)N3CCc4ccccc43)nc(-c3ccc(Cl)cc3)nc2n(C)c1=O` was tested, and the activation was inactive: -2.06%.
With `Cc1ccc(NC(=O)C2CCCN2S(=O)(=O)c2ccc3c(c2)n(C)c(=O)c(=O)n3C)cc1C` (stereo not drawn) the activation was inactive: -21.9%.
With `O=c1[nH]c2ccccc2n1CCCN1CCN(C(c2ccccc2)c2ccccc2)CC1` the activation was inactive: 31.8%.
With `Cc1cccc(CSc2ncccc2C(=O)O)c1` the activation was inactive: 9.2%.
For `CCOc1ccccc1NC(=O)Cn1c(=O)n(C(C)C)c(=O)c2oc3ccccc3c21`, the activation was inactive: -22.4%.
`COCCn1c(C)cc(O)c(C(c2ccc(F)cc2)N2CCC(C)CC2)c1=O` (stereo not drawn) was tested, and the activation was inactive: -6.04%.
With `COc1ccc(-n2nc3c(N4CCCC(C(=O)NCCc5ccccc5C)C4)nnc(C)c3c2C)cc1` (stereo not drawn) the activation was inactive: -6.59%.
`COc1ccc(-n2c(=O)c3ccc(C(=O)NCc4ccc(C)cc4)cc3n(Cc3ccc(Cl)cc3)c2=O)cc1` was tested, and the activation was inactive: -0.14%.

From PubChem BioAssay AID1346428 (National Center for Advancing Translational Sciences (NCATS), 2018)
